The source gives no read counts; variants with many changes may rest on few reads.

Sequences and labels used below:
B1: LINE1-mini (parent)
chain: GGCAGAGCUCAACACAGCGUGGCAAAGUGGCUGUGGCUAGACUGCC

The variants in this data set derive from B1. As to the kind of experiment: self-cleavage, relative activity (ratio to wild type); higher = more cleavage; in vitro, sequencing; the parent is a self-cleaving ribozyme.
GGCAGAGCUCAACACAGCGUGGCAAUCAGGCUCUGGCUAGACUGGC [A26U G27C U28A G33C C45G]: the self-cleavage amounted to 0.04.
Turning to GGCAGAGCUCAACACAGCGUGGCAAUGUGGGUGUGGCUAGAUUGCC [A26U C31G C42U], the self-cleavage worked out at 0.02.
GGCAGAGCUCAACACAGCGUGGCAAUGUGGGUGUGGCUAGAAUGCC [A26U C31G C42A]: the self-cleavage stood at 0.06.
As for GGCAGAGCUCAACACAGCGUGGCAAGGUGGCUGUCCCUAGACUGCC [A26G G35C G36C], the self-cleavage came out at 0.02.
Take GGCAGAGCUCAACACAGCGUGGCAAGGUCGCUGUGGCUAGGCUCCC [A26G G29C A41G G44C]: the self-cleavage was determined as 0.
To GGCAGAGCUCAACACAGCGUGGCAACGUGGCUGUGGCAAGACUACC [A26C U38A G44A] belongs 0.07; to GGCAGAGCUCAACACAGCGUGGCAAUGUCGCUGUGGCUAGAAUGCC [A26U G29C C42A], 0.06.
For the variant GGCAGAGCUCAACACAGCGUGGCAAUUUGGCUGUGGCGAGUCUGCC [A26U G27U U38G A41U], the self-cleavage came out at 0.01.
Consider GGCAGAGCUCAACACAGCGUGGCAAUAUGCCUGUGGCAAGACUGCC [A26U G27A G30C U38A], for which the self-cleavage is 2.39.
To GGCAGAGCUCAACACAGCGUGGCAACGUAGCUGUGGCAAGACUGCC [A26C G29A U38A] belongs 0.17; to GGCAGAGCUCAACACAGCGUGGCAAGGUGGCAGCGGCUAGACUGCC [A26G U32A U34C], 0.02; to GGCAGAGCUCAACACAGCGUGGCAAGGUGUCUGUGGCUAGAAUACC [A26G G30U C42A G44A], 0.06.
The result for GGCAGAGCUCAACACAGCGUGGCAACGGGGCAGUGGCUAGACUGCC [A26C U28G U32A] reads 0.07; that for GGCAGAGCUCAACACAGCGUGGCAAUGUGAAUGUGGCUAGACUGCC [A26U G30A C31A], 0.2; that for GGCAGAGCUCAACACAGCGUGGCAAGGUGGCUGUGGCUAAACUCCG [A26G G40A G44C C46G], 0.03.
With GGCAGAGCUCAACACAGCGUGGCAACGUGGCUGUGUCUGGAAUGCC [A26C G36U A39G C42A], the self-cleavage was 0.
Take GGCAGAGCUCAACACAGCGUGGCAACGUCCCUGUGGGUGGACUGCC [A26C G29C G30C C37G A39G]: the self-cleavage worked out at 0.05.
To GGCAGAGCUCAACACAGCGUGGCAACGCGGCAGUGGCUAGACUGCC [A26C U28C U32A] belongs 0.
For the variant GGCAGAGCUCAACACAGCGUGGCAACGUGCCCGUGGCUAGACUGCC [A26C G30C U32C], the self-cleavage worked out at 0.13.
In the case of GGCAGAGCUCAACACAGCGUGGCAAGGUGGCUGUGGCUAGGCUUCC [A26G A41G G44U], the self-cleavage worked out at 0.07.
Take GGCAGAGCUCAACACAGCGUGGCAAGGUGGUUCUGGCUAGACUGCC [A26G C31U G33C]: the self-cleavage turned out to be 0.04.
Consider GGCAGAGCUCAACACAGCGUGGCAACUUGCCUGUGGCUAGACUGCC [A26C G27U G30C], for which the self-cleavage came out at 0.41.
The result for GGCAGAGCUCAACACAGCGUGGCAAGGUGGCUGUAGCUAGACAGCC [A26G G35A U43A] reads 0.06; that for GGCAGAGCUCAACACAGCGUGGCAACGUUGCAGUGGCUAGACUGCC [A26C G29U U32A], 0.06.
Take GGCAGAGCUCAACACAGCGUGGCAAGGUGGCUGUGGUUAGACUGCA [A26G C37U C46A]: the self-cleavage was determined as 0.07.
As for GGCAGAGCUCAACACAGCGUGGCAACGUGGCUGUGGCUACACUGAC [A26C G40C C45A], the self-cleavage was 0.03.
For the variant GGCAGAGCUCAACACAGCGUGGCAACUUGGCUGUGGUUAGACUGGC [A26C G27U C37U C45G], the self-cleavage came to 0.02.
Consider GGCAGAGCUCAACACAGCGUGGCAACAUGGCUGUGGGUUGACUGCC [A26C G27A C37G A39U], for which the self-cleavage turned out to be 0.
Regarding GGCAGAGCUCAACACAGCGUGGCAACGGGGCUGGGGCUAGACUGCC [A26C U28G U34G], the self-cleavage is 0.07.
As for GGCAGAGCUCAACACAGCGUGGCAACGUGGCUCUUGCUAGACUGCC [A26C G33C G35U], the self-cleavage was 0.02.
To GGCAGAGCUCAACACAGCGUGGCAAGGUGGCAGUGGCUAGACUGCU [A26G U32A C46U] belongs 0.02; to GGCAGAGCUCAACACAGCGUGGCAAGCUGGCUGUGGCAAGACUGCC [A26G G27C U38A], 0.27.
Regarding GGCAGAGCUCAACACAGCGUGGCAACGUGACUGUGGGUAGACUUAC [A26C G30A C37G G44U C45A], the self-cleavage turned out to be 0.17.
With GGCAGAGCUCAACACAGCGUGGCAACGAGGACGUGGCUAGACUGGC [A26C U28A C31A U32C C45G], the self-cleavage came to 0.02.
In the case of GGCAGAGCUCAACACAGCGUGGCAAGGCGGCUGUGGCUAGACUCCC [A26G U28C G44C], the self-cleavage was 0.51.
As for GGCAGAGCUCAACACAGCGUGGCAAGUUGGCUGCGGCUACACUGCC [A26G G27U U34C G40C], the self-cleavage is 0.01.
For GGCAGAGCUCAACACAGCGUGGCAACGGGGCUGUGGCUAGCCUGCC [A26C U28G A41C], the self-cleavage is 0.01.
In the case of GGCAGAGCUCAACACAGCGUGGCAAGGUGGCUGUGGUUAGACUGAC [A26G C37U C45A], the self-cleavage came to 0.03.
Turning to GGCAGAGCUCAACACAGCGUGGCAACGUGGCUAUGGCUAGACUUCC [A26C G33A G44U], the self-cleavage came to 0.1.
With GGCAGAGCUCAACACAGCGUGGCAAGGUGGCUGUGGCAAGACUACC [A26G U38A G44A], the self-cleavage came to 0.02.
Take GGCAGAGCUCAACACAGCGUGGCAAGGUGAAUGUGGCUAUGCUGCC [A26G G30A C31A G40U A41G]: the self-cleavage was found to be 0.07.
As for GGCAGAGCUCAACACAGCGUGGCAACGUGGCUGUCGGUAGAGUGCA [A26C G35C C37G C42G C46A], the self-cleavage was 0.02.
With GGCAGAGCUCAACACAGCGUGGCAACGUGGCUGUUCCUAGACUCCC [A26C G35U G36C G44C], the self-cleavage was 0.42.
Turning to GGCAGAGCUCAACACAGCGUGGCAAUGUGGCUGUGGGUGGACUGCC [A26U C37G A39G], the self-cleavage was found to be 0.02.
In the case of GGCAGAGCUCAACACAGCGUGGCAACGUGGCUGCUGCUAGAGUGCC [A26C U34C G35U C42G], the self-cleavage worked out at 0.03.
The result for GGCAGAGCUCAACACAGCGUGGCAAGGUGGGUGUGGCUAGACUGCA [A26G C31G C46A] reads 0.03; that for GGCAGAGCUCAACACAGCGUGGCAAGGUGUCGGUGGCUCGACUGCC [A26G G30U U32G A39C], 0.03.
Turning to GGCAGAGCUCAACACAGCGUGGCAAUGUCGCUGUGGCUAGAUUGCG [A26U G29C C42U C46G], the self-cleavage was 0.03.
In the case of GGCAGAGCUCAACACAGCGUGGCAACGCGGAAGUGGCUAGCAUGCC [A26C U28C C31A U32A A41C C42A], the self-cleavage came out at 0.01.
Take GGCAGAGCUCAACACAGCGUGGCAAGGUGGCUGUGGCUAGACAUCC [A26G U43A G44U]: the self-cleavage is 0.16.
Consider GGCAGAGCUCAACACAGCGUGGCAACGUCGCUGUGGCUAGACCGCC [A26C G29C U43C], for which the self-cleavage was determined as 0.01.
Take GGCAGAGCUCAACACAGCGUGGCAAUGUGGCUUUGGAUAGACUGCC [A26U G33U C37A]: the self-cleavage came out at 0.07.
The result for GGCAGAGCUCAACACAGCGUGGCAAGCUGGGUAUGGCUCGGCUGCC [A26G G27C C31G G33A A39C A41G] reads 0.02; that for GGCAGAGCUCAACACAGCGUGGCAACGUGUCUGAGGCUAGACUGCA [A26C G30U U34A C46A], 0.02.
As for GGCAGAGCUCAACACAGCGUGGCAAUUUGGCUGUGGCUAUACUGCC [A26U G27U G40U], the self-cleavage amounted to 0.13.
With GGCAGAGCUCAACACAGCGUGGCAACGUGGCUAUGGCUAGCCUGCC [A26C G33A A41C], the self-cleavage was 0.12.

For the origin of these results see the RNAGym collection of RNA variant scans (doi:10.7554/elife.90254).
